# Test results as given in PMC12040169 (PLOS Biology, 2025).
# The other results are listed elsewhere or left out.
# Test system: T1, C. trachomatis L2/434/Bu expressing GFP (CTL2-GFP)
# T1 construct: L2/434/Bu GFP intracellular growth in HeLa cells
# Design: species or system HeLa; C. trachomatis total inclusion area by high-content imaging, normalised to DMSO
# Settings: total inclusion area; 28.5 h, 10 µM; inhibitor
# Summary of the method: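 High-content imaging followed the bulk GFP/resorufin measurement: fixed, Hoechst-stained cells were scored for GFP inclusions and host nuclei per well. Total inclusion area and count served as growth proxies, nuclei number as the viability proxy. MIC calculation matched the bulk assay.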
row,Structure (SMILES),% of control remaining
1,Clc1ccc(-c2c[nH]c([C@@H]3COCCN3Cc3c[nH]cn3)n2)cc1 [CBK289316],108.823
2,CCCCNC(=O)N(O)C1N(C)C(=S)SC1(C)C (centres unmarked) [CBK006880],123.003
3,CNCC1CCCN(C(=O)c2ccc(Oc3cccnc3)cc2)C1 (centres unmarked) [CBK304479],71.3233
4,COc1ccc(Oc2nccnc2N2CCN(CCCC#N)CC2)cc1OC [CBK083056T],95.17
5,COc1ccccc1-c1cccc(C2CCCN(C(=O)CCCc3ccccc3)C2)n1 (centres unmarked) [CBK286217],106.92
6,CCn1c(CC2CCN(C(=O)c3ccc(C)c(C)c3)CC2)nn(C)c1=O [CBK307133],74.9368
7,Cc1ccc(OCCn2cncc2-c2cn(C)nc2C)cc1 [CBK281626],98.314
8,Cc1ccc(CN2C(=O)CSC2c2cn(-c3ccccc3)nc2-c2ccccc2)cc1 (centres unmarked) [CBK263678],56.9147
9,O=C(Nc1ccccc1-c1nc2ccccc2s1)c1sc2cc(Cl)ccc2c1Cl [CBK268642],111.324
10,CC(=O)NC(c1ccccn1)C1CCCN(C(=O)C2CC2)C1 (centres unmarked) [CBK285040],82.19
11,Cc1sc2nc(C)n(C3CCNCC3)c(=O)c2c1C [CBK282421],90.3361
12,Cc1nc(CNc2ccc3nnc(C(F)(F)F)n3n2)cs1 [CBK305674],37.723
13,Cc1nc(SCC(=O)NC(C)c2cccnc2)oc1C (centres unmarked) [CBK282198],93.9712
14,O=C(CN1CCC[C@@H]1CN1CCCC1)Nc1ncccn1 [CBK149107],104.114
15,O=C(CC1CCN(C(=O)c2ccc3nsnc3c2)CC1)N1CCN(c2ccccc2)CC1 [CBK286266],115.824
16,COc1ccccc1N1CCN(c2cc(N3CCNCC3)ccc2[N+](=O)[O-])CC1 [CBK293931],88.9018
17,CC(=O)Nc1ccc(S(=O)(=O)NCC#N)cc1Cl [CBK045102],90.122
18,Cc1ccc(OCC(=O)N2CCN(S(=O)(=O)c3ccccc3[N+](=O)[O-])CC2)cc1 [CBK264260],70.4576
19,O=[N+]([O-])c1ccc(N2CCCCC2)s1 [CBK016566],98.8394
20,CC(NC(=O)c1ccccc1Cn1cccn1)c1ccccn1 (centres unmarked) [CBK281374],100.85
21,CN(C)c1ccc(CC(=O)Nc2cnc(-c3ccc(F)c(Cl)c3)c(-c3ccco3)n2)cc1 [CBK037581],124.289
22,Cc1cc2ccccc2n2c(=O)n(CC(=O)N(C(C)C)C(C)C)nc12 [CBK283885],94.8985
23,Cc1nnc(NS(=O)(=O)c2ccc(OC(F)(F)F)cc2)s1 [CBK026673],102.828
